Laboratory results reported in the supplement of paper PMC8728848.
This is one part of the list.

Assays:
Experiment in all cases: glycan array binding signal (z-score within array); higher = stronger binding
Conditions in all cases: glycan notation: IUPAC condensed, linker removed
[1] = molecular target: GlcNAc(b1-2)Gal(b1-3)GalNAc
Method in brief: (§1)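 Glycan array data came from 3228 arrays in the Consortium for Functional Glycomics database, and only arrays with an available protein sequence were kept. Glycan names were put into IUPAC-condensed notation, and columns mapping to the same glycan were averaged. The binding signal is a within-array Z-score, averaged across arrays of one protein sequence run at different concentrations or buffers and across linkers. A negative Z-score can be read as non-binding.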

[2] = molecular target: GlcNAc(b1-2)Man(a1-3)[GlcNAc(b1-2)Man(a1-6)]Man(b1-4)GlcNAc(b1-4)GlcNAc
Method in brief: as §1

[3] = molecular target: GlcNAc(b1-2)Man(a1-3)[GlcNAc(b1-2)Man(a1-6)]Man(b1-4)GlcNAc(b1-4)[Fuc(a1-6)]GlcNAc
Method in brief: as §1

[4] = molecular target: GlcNAc(b1-2)Man(a1-3)[GlcNAc(b1-4)][GlcNAc(b1-2)Man(a1-6)]Man(b1-4)GlcNAc(b1-4)GlcNAc
Method in brief: as §1

[5] = molecular target: GlcNAc(b1-2)Man(a1-3)[GlcNAc(b1-4)][GlcNAc(b1-2)Man(a1-6)]Man(b1-4)GlcNAc(b1-4)[Fuc(a1-6)]GlcNAc
Method in brief: as §1

[6] = molecular target: GlcNAc(b1-2)[GlcNAc(b1-4)]Man(a1-3)[GlcNAc(b1-2)Man(a1-6)]Man(b1-4)GlcNAc(b1-4)GlcNAc
Method in brief: as §1

[7] = molecular target: GlcNAc(b1-2)[GlcNAc(b1-4)]Man(a1-3)[GlcNAc(b1-4)][GlcNAc(b1-2)Man(a1-6)]Man(b1-4)GlcNAc(b1-4)GlcNAc
Method in brief: as §1

[8] = molecular target: GlcNAc(b1-2)[GlcNAc(b1-4)]Man(a1-3)[GlcNAc(b1-4)][GlcNAc(b1-2)[GlcNAc(b1-6)]Man(a1-6)]Man(b1-4)GlcNAc(b1-4)GlcNAc
Method in brief: as §1

[9] = molecular target: GlcNAc(b1-2)[GlcNAc(b1-4)]Man(a1-3)[GlcNAc(b1-4)][GlcNAc(b1-2)[GlcNAc(b1-6)]Man(a1-6)]Man(b1-4)GlcNAc(b1-4)[Fuc(a1-6)]GlcNAc
Method in brief: as §1

[10] = molecular target: GlcNAc(b1-2)[GlcNAc(b1-6)]Man(a1-6)[GlcNAc(b1-2)Man(a1-3)]Man(b1-4)GlcNAc(b1-4)GlcNAc
Method in brief: as §1

[11] = molecular target: GlcNAc(b1-2)[GlcNAc(b1-6)]Man(a1-6)[GlcNAc(b1-2)Man(a1-3)]Man(b1-4)GlcNAc(b1-4)[Fuc(a1-6)]GlcNAc
Method in brief: as §1

[12] = molecular target: GlcNAc(b1-2)[GlcNAc(b1-6)]Man(a1-6)[GlcNAc(b1-4)][GlcNAc(b1-2)Man(a1-3)]Man(b1-4)GlcNAc(b1-4)GlcNAc
Method in brief: as §1

GlcNAc(b1-3)Fuc = molecular target: GlcNAc(b1-3)Fuc
Method in brief: as §1

GlcNAc(b1-3)Gal = molecular target: GlcNAc(b1-3)Gal
Method in brief: as §1

[13] = molecular target: GlcNAc(b1-3)Gal(b1-3)GalNAc
Method in brief: as §1

GlcNAc(b1-3)Gal(b1-4)Glc = molecular target: GlcNAc(b1-3)Gal(b1-4)Glc
Method in brief: as §1

[14] = molecular target: GlcNAc(b1-3)Gal(b1-4)GlcNAc
Method in brief: as §1

[15] = molecular target: GlcNAc(b1-3)Gal(b1-4)GlcNAc(b1-2)Man(a1-3)[GlcNAc(b1-3)Gal(b1-4)GlcNAc(b1-2)Man(a1-6)]Man(b1-4)GlcNAc(b1-4)GlcNAc
Method in brief: as §1

[16] = molecular target: GlcNAc(b1-3)Gal(b1-4)GlcNAc(b1-2)Man(a1-3)[GlcNAc(b1-3)Gal(b1-4)GlcNAc(b1-2)Man(a1-6)]Man(b1-4)GlcNAc(b1-4)[Fuc(a1-6)]GlcNAc
Method in brief: as §1

[17] = molecular target: GlcNAc(b1-3)Gal(b1-4)GlcNAc(b1-2)[GlcNAc(b1-3)Gal(b1-4)GlcNAc(b1-6)]Man(a1-6)[GlcNAc(b1-3)Gal(b1-4)GlcNAc(b1-2)Man(a1-3)]Man(b1-4)GlcNAc(b1-4)GlcNAc
Method in brief: as §1

[18] = molecular target: GlcNAc(b1-3)Gal(b1-4)GlcNAc(b1-3)Gal(b1-4)GlcNAc
Method in brief: as §1

[19] = molecular target: GlcNAc(b1-3)Gal(b1-4)GlcNAc(b1-3)Gal(b1-4)GlcNAc(b1-2)Man(a1-3)[GlcNAc(b1-3)Gal(b1-4)GlcNAc(b1-3)Gal(b1-4)GlcNAc(b1-2)Man(a1-6)]Man(b1-4)GlcNAc(b1-4)GlcNAc
Method in brief: as §1

[20] = molecular target: GlcNAc(b1-3)Gal(b1-4)GlcNAc(b1-3)Gal(b1-4)GlcNAc(b1-2)Man(a1-3)[GlcNAc(b1-3)Gal(b1-4)GlcNAc(b1-3)Gal(b1-4)GlcNAc(b1-2)Man(a1-6)]Man(b1-4)GlcNAc(b1-4)[Fuc(a1-6)]GlcNAc
Method in brief: as §1

[21] = molecular target: GlcNAc(b1-3)Gal(b1-4)GlcNAc(b1-3)Gal(b1-4)GlcNAc(b1-2)[GlcNAc(b1-3)Gal(b1-4)GlcNAc(b1-3)Gal(b1-4)GlcNAc(b1-6)]Man(a1-6)[GlcNAc(b1-3)Gal(b1-4)GlcNAc(b1-3)Gal(b1-4)GlcNAc(b1-2)Man(a1-3)]Man(b1-4)GlcNAc(b1-4)[Fuc(a1-6)]GlcNAc
Method in brief: as §1

[22] = molecular target: GlcNAc(b1-3)Gal(b1-4)GlcNAc(b1-3)Gal(b1-4)GlcNAc(b1-3)Gal(b1-4)GlcNAc(b1-2)Man(a1-3)[GlcNAc(b1-3)Gal(b1-4)GlcNAc(b1-3)Gal(b1-4)GlcNAc(b1-3)Gal(b1-4)GlcNAc(b1-2)Man(a1-6)]Man(b1-4)GlcNAc(b1-4)GlcNAc
Method in brief: as §1

[23] = molecular target: GlcNAc(b1-3)Gal(b1-4)GlcNAc(b1-3)Gal(b1-4)GlcNAc(b1-3)Gal(b1-4)GlcNAc(b1-2)Man(a1-3)[GlcNAc(b1-3)Gal(b1-4)GlcNAc(b1-3)Gal(b1-4)GlcNAc(b1-3)Gal(b1-4)GlcNAc(b1-2)Man(a1-6)]Man(b1-4)GlcNAc(b1-4)[Fuc(a1-6)]GlcNAc
Method in brief: as §1

[24] = molecular target: GlcNAc(b1-3)Gal(b1-4)GlcNAc(b1-3)Gal(b1-4)GlcNAc(b1-3)Gal(b1-4)GlcNAc(b1-2)[GlcNAc(b1-3)Gal(b1-4)GlcNAc(b1-3)Gal(b1-4)GlcNAc(b1-3)Gal(b1-4)GlcNAc(b1-6)]Man(a1-6)[GlcNAc(b1-3)Gal(b1-4)GlcNAc(b1-3)Gal(b1-4)GlcNAc(b1-3)Gal(b1-4)GlcNAc(b1-2)Man(a1-3)]Man(b1-4)GlcNAc(b1-4)[Fuc(a1-6)]GlcNAc
Method in brief: as §1

[25] = molecular target: GlcNAc(b1-3)Gal(b1-4)GlcNAc(b1-3)Gal(b1-4)GlcNAc(b1-3)Gal(b1-4)GlcNAc(b1-3)Gal(b1-4)GlcNAc(b1-2)Man(a1-3)[GlcNAc(b1-3)Gal(b1-4)GlcNAc(b1-3)Gal(b1-4)GlcNAc(b1-3)Gal(b1-4)GlcNAc(b1-3)Gal(b1-4)GlcNAc(b1-2)Man(a1-6)]Man(b1-4)GlcNAc(b1-4)GlcNAc
Method in brief: as §1

[26] = molecular target: GlcNAc(b1-3)Gal(b1-4)GlcNAc(b1-3)Gal(b1-4)GlcNAc(b1-3)Gal(b1-4)GlcNAc(b1-3)Gal(b1-4)GlcNAc(b1-2)Man(a1-3)[GlcNAc(b1-3)Gal(b1-4)GlcNAc(b1-3)Gal(b1-4)GlcNAc(b1-3)Gal(b1-4)GlcNAc(b1-3)Gal(b1-4)GlcNAc(b1-2)Man(a1-6)]Man(b1-4)GlcNAc(b1-4)[Fuc(a1-6)]GlcNAc
Method in brief: as §1

[27] = molecular target: GlcNAc(b1-3)Gal(b1-4)GlcNAc(b1-3)Gal(b1-4)GlcNAc(b1-3)Gal(b1-4)GlcNAc(b1-3)Gal(b1-4)GlcNAc(b1-2)[GlcNAc(b1-3)Gal(b1-4)GlcNAc(b1-3)Gal(b1-4)GlcNAc(b1-3)Gal(b1-4)GlcNAc(b1-3)Gal(b1-4)GlcNAc(b1-6)]Man(a1-6)[GlcNAc(b1-3)Gal(b1-4)GlcNAc(b1-3)Gal(b1-4)GlcNAc(b1-3)Gal(b1-4)GlcNAc(b1-3)Gal(b1-4)GlcNAc(b1-2)Man(a1-3)]Man(b1-4)GlcNAc(b1-4)[Fuc(a1-6)]GlcNAc
Method in brief: as §1

[28] = molecular target: GlcNAc(b1-3)Gal(b1-4)GlcNAc(b1-3)Gal(b1-4)GlcNAc(b1-3)GalNAc
Method in brief: as §1

[29] = molecular target: GlcNAc(b1-3)Gal(b1-4)GlcNAc(b1-3)GalNAc
Method in brief: as §1

[30] = molecular target: GlcNAc(b1-3)Gal(b1-4)GlcNAc(b1-3)[GlcNAc(b1-3)Gal(b1-4)GlcNAc(b1-3)]GalNAc
Method in brief: as §1

[31] = molecular target: GlcNAc(b1-3)Gal(b1-4)GlcNAc(b1-6)[Gal(b1-3)]GalNAc
Method in brief: as §1

[32] = molecular target: GlcNAc(b1-3)Gal(b1-4)GlcNAc(b1-6)[GlcNAc(b1-3)Gal(b1-3)]GalNAc
Method in brief: as §1

[33] = molecular target: GlcNAc(b1-3)Gal(b1-4)GlcNAc(b1-6)[GlcNAc(b1-3)]Gal(b1-4)GlcNAc
Method in brief: as §1

GlcNAc(b1-3)GalNAc = molecular target: GlcNAc(b1-3)GalNAc
Method in brief: as §1

GlcNAc(b1-3)Man = molecular target: GlcNAc(b1-3)Man
Method in brief: as §1

[34] = molecular target: GlcNAc(b1-3)[GlcNAc(b1-4)][GlcNAc(b1-6)]GlcNAc
Method in brief: as §1

[35] = molecular target: GlcNAc(b1-3)[GlcNAc(b1-6)]Gal(b1-4)GlcNAc
Method in brief: as §1

[36] = molecular target: GlcNAc(b1-3)[GlcNAc(b1-6)]GalNAc
Method in brief: as §1

[37] = molecular target: GlcNAc(b1-3)[GlcNAc(b1-6)]GlcNAc(b1-4)GlcNAc
Method in brief: as §1

[38] = molecular target: GlcNAc(b1-4)Gal(b1-4)GlcNAc
Method in brief: as §1

GlcNAc(b1-4)GlcNAc = molecular target: GlcNAc(b1-4)GlcNAc
Method in brief: as §1

[39] = molecular target: GlcNAc(b1-4)GlcNAc(b1-4)GlcNAc
Method in brief: as §1

B1: MAL-II (Maackia amurensis), P93248 (protein)
chain: ATSNSKPTQVLLATFLTFFFLLLNNVNSSDELSFTINNFVPNEADLLFQGEASVSSTGVLQLTRVENGQPQQYSVGRALYAAPVRIWDNTTGSVASFSTSFTFVVKAPNPTITSDGLAFFLAPPDSQIPSGRVSKYLGLFNNSNSDSSNQIVAVEFDTYFGHSYDPWDPNYRHIGIDVNGIESIKTVQWDWINGGVAFATITYLAPNKTLIASLVYPSNQTSFIVAASVDLKEILPEWVRVGFSAATGYPTQVETHDVLSWSFTSTLEANSDAATENNVHIARYTA
glycan array binding signal (z-score) [1]: -0.202
glycan array binding signal (z-score) [2]: -0.234
glycan array binding signal (z-score) [3]: -0.189
glycan array binding signal (z-score) [4]: -0.141
glycan array binding signal (z-score) [5]: -0.148
glycan array binding signal (z-score) [6]: -0.199
glycan array binding signal (z-score) [7]: -0.233
glycan array binding signal (z-score) [8]: -0.186
glycan array binding signal (z-score) [9]: -0.349
glycan array binding signal (z-score) [10]: -0.206
glycan array binding signal (z-score) [11]: -0.205
glycan array binding signal (z-score) [12]: -0.297
glycan array binding signal (z-score) (GlcNAc(b1-3)Fuc): -0.209
glycan array binding signal (z-score) (GlcNAc(b1-3)Gal): -0.227
glycan array binding signal (z-score) [13]: -0.201
glycan array binding signal (z-score) (GlcNAc(b1-3)Gal(b1-4)Glc): -0.167
glycan array binding signal (z-score) [14]: -0.194
glycan array binding signal (z-score) [15]: 0.06
glycan array binding signal (z-score) [16]: 0.484
glycan array binding signal (z-score) [17]: 0.478
glycan array binding signal (z-score) [18]: -0.177
glycan array binding signal (z-score) [19]: 0.13
glycan array binding signal (z-score) [20]: 0.431
glycan array binding signal (z-score) [21]: 0.696
glycan array binding signal (z-score) [22]: -0.387
glycan array binding signal (z-score) [23]: 0.385
glycan array binding signal (z-score) [24]: 0.009
glycan array binding signal (z-score) [25]: 0.547
glycan array binding signal (z-score) [26]: -0.205
glycan array binding signal (z-score) [27]: -0.371
glycan array binding signal (z-score) [28]: 0.132
glycan array binding signal (z-score) [29]: -0.159
glycan array binding signal (z-score) [30]: -0.195
glycan array binding signal (z-score) [31]: -0.173
glycan array binding signal (z-score) [32]: -0.245
glycan array binding signal (z-score) [33]: -0.028
glycan array binding signal (z-score) (GlcNAc(b1-3)GalNAc): -0.227
glycan array binding signal (z-score) (GlcNAc(b1-3)Man): -0.225
glycan array binding signal (z-score) [34]: -0.201
glycan array binding signal (z-score) [35]: -0.249
glycan array binding signal (z-score) [36]: -0.162
glycan array binding signal (z-score) [37]: -0.216
glycan array binding signal (z-score) [38]: -0.281
glycan array binding signal (z-score) (GlcNAc(b1-4)GlcNAc): -0.219
glycan array binding signal (z-score) [39]: -0.135
